Measured values as given in PubChem BioAssay AID924 (National Center for Advancing Translational Sciences (NCATS), 2007).
Among all 130,000 compounds or so, about 1,200 (0.92%) were called active. Inconclusive means that the source gave no clear call. Such entries were picked first, then a sample of the others. The call rests on the fitted dose curve; in most records, active means well fitted cell-killing curve with a large enough effect; inconclusive means small, poorly fitted or top-dose-only effect; inactive means no such curve, though single readings can be large or run the other way. Potencies beside an inconclusive call are fits to weak or partial responses and may not hold up.

experiment: qHTS Screen for Compounds that Selectively Target Cancer Cells with p53 Mutations: Cytotoxicity of p53ts Cells at the Permissive Temperature; settings: H1299-p53A138V at 32C, ATP luminescence viability, 24 h; series mostly up to 46.1 µM; further: nearly all actives have a fitted effect of over 55% in size
Outline: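 H1299-p53 A138V cells (temperature-sensitive p53) exposed 24 h to up to 46 uM compound at 32C, where p53 is wild-type in conformation. Viability read as ATP luminescence and normalised to DMSO and 100 uM tamoxifen. AC50 fitted with the Hill equation.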
Potency means the concentration at half of the fitted maximal effect; tags describe the fitted curve by direction and shape.

Row | SMILES | Potency
1 | COc1ccc(-c2nc(C(N)=O)c3[nH]c(=O)n(-c4cccc(Cl)c4)c3n2)cc1OC | inconclusive: 31.6 µM [cytotoxic, single point]
2 | COc1cccc(NS(=O)(=O)c2cn(C)c(=O)n(C)c2=O)c1 | active: 7.94 µM
3 | CC(C)CN(CCCNC(=O)c1cc(-c2ccc(Br)s2)nc2ccccc12)CC(C)C | inactive
4 | Cc1ccc2oc(=O)c3cnn(CC(=O)N4CCN(c5ccccn5)CC4)c3c2c1 | inconclusive: 12.6 µM [cytotoxic, partial curve]
5 | COc1ccc(-c2cn3c(C)c(C(=O)Nc4cccc(C)n4)sc3n2)cc1 | inactive
6 | CCN1C(=O)/C(=C2\SC(N3CCCCC3)=NC2=O)c2ccccc21 | inconclusive: 12.6 µM [cytotoxic, single point]
7 | O=C(O)Cn1c(=O)oc2cc(S(=O)(=O)NC3CCCCC3)ccc21 | inactive
8 | Cc1ccc(C)c(NC(=O)Cn2cc(C(=O)c3ccco3)c3ccccc32)c1 | inconclusive: 31.6 µM [cytotoxic, single point]
9 | COc1ccc2[nH]cc(CCNc3ccnc(-c4cccc(NS(C)(=O)=O)c4)n3)c2c1 | inconclusive: 25.1 µM [cytotoxic, single point]
10 | COc1ccc(CCNC(=O)CCCn2c(=O)c3ccccc3n(CC(=O)Nc3cc(Cl)ccc3C)c2=O)cc1OC | inconclusive: 31.6 µM [cytotoxic, single point]
11 | CC(C)C(=O)Nc1ccccc1C(=O)OCC(=O)c1ccc2c(c1)OCCO2 | inconclusive: 0.0316 µM [cytotoxic, full curve]
12 | CCn1c(=O)c(C(=O)Nc2ccc(C(C)=O)cc2)nc2ccccc21 | active: 10 µM
13 | O=C(NCCc1ccncc1)c1ccccc1F | inactive
14 | Oc1ccccc1C1=Nc2nc3ccccc3n2C(c2ccccc2)C1 (stereo not given) | inconclusive: 12.6 µM [cytotoxic, partial curve]
15 | COc1cccc(-c2nc(SCC(=O)Nc3ccc4c(c3)OCCO4)c(-c3ccccc3)[nH]2)c1 | inconclusive: 20 µM [cytotoxic, single point]
16 | C=CCOc1ccc(/C=C/C(C)=N\O)cc1 | inconclusive: 12.6 µM [cytotoxic, single point]
17 | Cc1ccc(CS(=O)(=O)c2ncc(Cl)c(C(=O)Nc3nc4ccc(C)cc4s3)n2)cc1 | active: 15.8 µM
18 | Cc1n[nH]c(C)c1S(=O)(=O)N(CC(=O)Nc1ccc(C(F)(F)F)cc1)c1ccc(C(C)C)cc1 | inconclusive: 31.6 µM [cytotoxic, single point]
19 | COc1cc(NC(=O)c2c(F)c(F)c(F)c(F)c2F)c(OC)cc1Cl | inconclusive: 31.6 µM [cytotoxic, single point]
20 | O=C(CC(=O)c1cc(Cl)ccc1O)c1ccccc1 | inconclusive: 25.1 µM [cytotoxic, single point]
21 | COc1ccc(N2CCN(Cc3nc(N)nc(Nc4ccc(C)c(Cl)c4)n3)CC2)cc1 | inconclusive: 31.6 µM [cytotoxic, single point]
22 | O=C(Nc1ccc2c(c1)OCO2)c1cccs1 | inconclusive: 31.6 µM [cytotoxic, single point]
23 | OCCN1CCN(C(c2cccs2)c2ccc3cccnc3c2O)CC1 (stereo not given) | inconclusive: 12.6 µM [cytotoxic, partial curve]
24 | CN(CCc1ccc(Cl)c(Cl)c1)CCN1CCCCCC1 | inconclusive: 15.8 µM [cytotoxic, partial curve]

Row | SMILES | Potency
25 | CCSc1nnc(NC(=O)c2cccs2)s1 | inconclusive: 12.6 µM [cytotoxic, partial curve]
26 | CC(C)(C)n1ncc2c(=O)n(CC(=O)c3ccccc3)cnc21 | inactive
27 | CCOC(=O)c1[nH]c(C)c(CCC(=O)N2CCN(c3cccc(OC)c3)CC2)c1C | inactive
28 | COc1ccc(S(=O)(=O)N2CCC(C(=O)Nc3cccc(Cl)c3)CC2)cc1OC | inactive
29 | CC(C)(C)c1ccc(/C=C/C(=O)c2ccc(NC3=NCCCS3)cc2)cc1 | inconclusive: 15.8 µM [cytotoxic, single point]
30 | Cn1c(CCN2CCOCC2)nc2cc(NC(=O)COc3ccc(Cl)cc3)ccc21 | inactive
31 | Clc1cccc(-c2ccc(CNCCSc3nnnn3-c3ccccc3)o2)c1 | inconclusive: 3.98 µM [cytotoxic, full curve, poor fit]
32 | COc1cc(Cl)c(C)cc1NC(=O)C1CCN(c2nc3ccccc3n3cccc23)CC1 | inconclusive: 12.6 µM [cytotoxic, single point]
33 | NC(=O)C1CCN(C(=O)c2ccc(NC(=O)c3nsc4ccccc34)cc2)CC1 | active: 2 µM
34 | CC(C)c1ccc(O)c(O)c(=O)c1 (tested in a mixture with another compound) | inconclusive: 1.58 µM [cytotoxic, partial curve]
35 | COc1cccc(-n2c(=O)[nH]cc(C(=O)Nc3ccc4c(c3)OCCO4)c2=O)c1 | inconclusive: 0.251 µM [cytotoxic, full curve, poor fit]
36 | Cc1ccc(Nc2nc(CSc3nnnn3C)cs2)cc1 | inconclusive: 12.6 µM [cytotoxic, partial curve]
37 | O=C(Nc1nc2c(s1)CCCC2)C1COc2ccccc2O1 (stereo not given) | inconclusive: 12.6 µM [cytotoxic, single point]
38 | COc1ccc(/C=C/C(=O)Nc2nc(-c3cccs3)ns2)cc1 | inconclusive: 35.5 µM [cytotoxic, single point]
39 | CC1CCCCC1NC(=O)Cn1c(CN2CCCCC2)nc2ccccc2c1=O (stereo not given) | inactive
40 | Cc1ccc(Cl)cc1-n1ncc2c(N3CCN(Cc4ccccc4)CC3)ncnc21 | active: 15.8 µM
41 | CC(=O)N1CCN(C2=Nc3cccc4cccc2c34)CC1 | inconclusive: 25.1 µM [cytotoxic, single point]
42 | c1c2c(cc3sc(N4CCOCC4)nc13)OCO2 | active: 10 µM
43 | COc1ccc(CCNc2ncnc3c2cnn3-c2cc(Cl)ccc2C)cc1 | inconclusive: 31.6 µM [cytotoxic, single point]
44 | Cc1cc(C)cc(NC(=O)Cn2cc(C(=O)C3CCCCC3)c3ccccc32)c1 | inconclusive: 10 µM [cytotoxic, partial curve]
45 | CCOc1ccc(NC(=O)c2c(NC(=O)Cc3ccccc3)sc3c2CCCCC3)cc1 | inconclusive: 12.6 µM [cytotoxic, single point]
46 | CCN1CCCC1CNC(=O)c1ccc(-n2c(=O)c(=O)[nH]c3ccccc32)cc1 (stereo not given) | inactive
47 | Cc1cc(NC(=O)CN2C(=O)c3cccnc3Sc3ccccc32)ccc1Br | inactive
48 | COc1ccc(Nc2oc(-c3ccc(COc4ccccc4C)o3)nc2C#N)cc1 | inconclusive: 5.62 µM [cytotoxic, single point]

Row | SMILES | Potency
49 | CCOC(=O)c1cnc(SCc2nc(N)nc(Nc3ccc(F)cc3)n2)nc1N | inconclusive: 31.6 µM [cytotoxic, single point]
50 | CC(C)Nc1nnc(SCC(=O)Nc2ccc(F)cc2)s1 | inactive
51 | COc1ccc(-c2nnc(SCc3ccccc3F)o2)cc1OC | inactive
52 | Cc1nn(-c2ccc(N3CCCCC3)nn2)c(C)c1CCC(=O)Nc1ccc(F)cc1F | inconclusive: 20 µM [cytotoxic, single point]
53 | COc1cc(OC)c(C2CC(=O)N3CN(c4ccccc4C)CSC3=C2C#N)cc1OC (stereo not given) | inactive
54 | O=C(Nc1ccc2c(c1)OCO2)c1nn(-c2ccccc2)c(=O)c2ccccc12 | inactive
55 | CCCCN(CC)C(=O)c1nn(C)c2c1CSc1ccccc1-2 | inconclusive: 31.6 µM [cytotoxic, single point]
56 | CC1=C(C(=O)Nc2ccc(C)cc2C)C(c2cccs2)n2nc(SCc3cccc(C)c3)nc2N1 (stereo not given) | inconclusive: 12.6 µM [cytotoxic, partial curve]
57 | Cc1ccc2oc(-c3ccc(C)c(NC(=O)C(C)(C)Oc4ccc(Cl)cc4)c3)nc2c1 | inconclusive: 12.6 µM [cytotoxic, partial curve]
58 | CC(=O)c1ccc(S(=O)(=O)N2CCn3cccc3C2c2ccccc2F)cc1 (stereo not given) | inactive
59 | CCOc1ccc2oc(=O)cc(CN3CCN(C(=O)c4ccc(OC)c(OC)c4)CC3)c2c1 | inactive
60 | N#Cc1cccc(-c2nc3cnc(N4CCNCC4)nc3n(C3CC3)c2=O)c1 | inconclusive: 15.8 µM [cytotoxic, single point]
61 | CCc1ccc(-n2c(=O)c3c4c(sc3n(Cc3cc(=O)n5c(C)cccc5n3)c2=O)CCC4)cc1 | inactive
62 | Nc1ccc(-c2ccc3ccccc3n2)cc1 | inconclusive: 12.6 µM [cytotoxic, partial curve]
63 | c1ccc2c(c1)NC1(CCCCC1)n1c-2nc2ccccc21 | inconclusive: 20 µM [cytotoxic, partial curve]
64 | CCOc1ccccc1-c1nc(-c2ccc(NC(=O)Cc3ccc(OC)cc3)cc2)no1 | inconclusive: 20 µM [cytotoxic, single point]
65 | Cc1ccccc1CCNC(=O)c1ccc2c(c1)nc1n2CCOC1 | active: 7.94 µM
66 | CSc1ncc(C(=O)Nc2ccccc2C(F)(F)F)c(-c2ccccc2)n1 | inactive
67 | CCCC(=O)Nc1cc2nn(-c3ccccc3)nc2cc1C | inconclusive: 2 µM [cytotoxic, full curve, poor fit]
68 | Cn1c(=O)c(C(=O)Nc2ccccn2)c(O)c2ccccc21 | inconclusive: 3.98 µM [cytotoxic, full curve, poor fit]
69 | COc1ccccc1N1CCN(c2nc(-c3ccccc3)cc(C(F)(F)F)n2)CC1 | inactive
70 | Cc1ccc(-n2ncc3c(NC(C)c4ccccc4)ncnc32)cc1 (stereo not given) | inconclusive: 20 µM [cytotoxic, partial curve, poor fit]
